Read-outs that look alike come from different tables or passages of the source. Each block holds one binder with its values, some of them ahead of it.
Assays:
activin A = molecular target: T1, activin A (UniProt P08476 311-426); experiment: Biacore SPR
T1 sequence (looked up): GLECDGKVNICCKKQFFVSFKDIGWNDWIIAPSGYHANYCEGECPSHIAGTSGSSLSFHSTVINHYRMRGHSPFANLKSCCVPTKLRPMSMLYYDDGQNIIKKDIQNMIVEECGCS
Protocol: (§1) Ligands were injected and allowed to flow over the captured receptor protein.

activin B = molecular target: T2, activin B (UniProt P09529 293-407); experiment: Biacore SPR
T2 sequence (looked up): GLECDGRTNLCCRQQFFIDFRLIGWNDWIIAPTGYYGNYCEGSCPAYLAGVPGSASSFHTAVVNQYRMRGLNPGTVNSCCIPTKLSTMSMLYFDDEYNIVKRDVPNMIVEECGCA
Protocol: as §1

activin AB = molecular target: T3, activin AB (UniProt P08476 311-426; P09529 293-407); experiment: Biacore SPR
T3 sequence (looked up) 1: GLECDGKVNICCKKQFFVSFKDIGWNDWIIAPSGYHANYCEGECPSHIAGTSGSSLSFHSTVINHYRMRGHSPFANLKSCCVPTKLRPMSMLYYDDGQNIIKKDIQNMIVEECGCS
T3 sequence (looked up) 2: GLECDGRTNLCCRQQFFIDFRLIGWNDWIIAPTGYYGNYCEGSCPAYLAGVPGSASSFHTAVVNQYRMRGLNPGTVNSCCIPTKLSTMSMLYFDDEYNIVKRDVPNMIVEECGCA
Protocol: as §1

activin AC = molecular target: T4, activin AC (UniProt P08476 311-426; P55103 237-352); experiment: Biacore SPR
T4 sequence (looked up) 1: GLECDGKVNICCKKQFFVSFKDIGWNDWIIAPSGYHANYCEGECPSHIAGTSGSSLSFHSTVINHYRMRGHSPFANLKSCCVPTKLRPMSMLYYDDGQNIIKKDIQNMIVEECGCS
T4 sequence (looked up) 2: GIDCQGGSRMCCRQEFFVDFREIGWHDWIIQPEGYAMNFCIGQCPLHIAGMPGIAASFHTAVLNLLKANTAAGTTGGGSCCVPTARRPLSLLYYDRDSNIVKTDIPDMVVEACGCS
Protocol: as §1

BMP6 = molecular target: T5, BMP6 (UniProt P22004 382-513, limits assumed); experiment: Biacore SPR
T5 sequence (looked up): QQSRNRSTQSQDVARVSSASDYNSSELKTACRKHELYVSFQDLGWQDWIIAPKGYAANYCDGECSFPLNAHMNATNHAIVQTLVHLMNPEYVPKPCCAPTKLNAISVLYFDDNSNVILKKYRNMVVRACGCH
Protocol: as §1

BMP7 = molecular target: T6, BMP7 (UniProt P18075 293-431); experiment: Biacore SPR
T6 sequence (looked up): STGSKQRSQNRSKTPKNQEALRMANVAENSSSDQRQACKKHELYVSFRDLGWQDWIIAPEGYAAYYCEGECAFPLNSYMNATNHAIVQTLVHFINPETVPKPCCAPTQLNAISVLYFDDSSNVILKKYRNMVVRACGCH
Protocol: as §1

BMP9 [1] = molecular target: T7, BMP9 (UniProt Q9UK05 320-429); experiment: Biacore SPR
T7 construct: also called GDF2
T7 sequence (looked up): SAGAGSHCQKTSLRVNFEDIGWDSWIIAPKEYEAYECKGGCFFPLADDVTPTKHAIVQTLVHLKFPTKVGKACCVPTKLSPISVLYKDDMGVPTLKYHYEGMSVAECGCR
Protocol: as §1

GDF3 = molecular target: T8, GDF3 (UniProt Q9NR23 251-364); experiment: Biacore SPR
T8 sequence (looked up): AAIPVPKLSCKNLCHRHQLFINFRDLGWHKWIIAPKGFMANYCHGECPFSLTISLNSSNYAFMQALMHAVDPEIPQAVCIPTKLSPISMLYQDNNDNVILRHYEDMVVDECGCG
Protocol: as §1

GDF8 = molecular target: T9, GDF8 (UniProt O14793 267-375); experiment: Biacore SPR
T9 construct: also called myostatin
T9 sequence (looked up): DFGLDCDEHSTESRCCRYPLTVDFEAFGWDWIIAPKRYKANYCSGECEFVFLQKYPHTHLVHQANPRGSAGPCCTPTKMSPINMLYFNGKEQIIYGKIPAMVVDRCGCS
Protocol: as §1

GDF11 = molecular target: T10, GDF11 (UniProt O95390 299-407); experiment: Biacore SPR
T10 construct: also called BMP11
T10 sequence (looked up): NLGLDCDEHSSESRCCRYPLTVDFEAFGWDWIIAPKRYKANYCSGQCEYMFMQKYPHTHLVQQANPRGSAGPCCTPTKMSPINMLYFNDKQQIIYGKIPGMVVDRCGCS
Protocol: as §1

BMP10 [2] = molecular target: T11, BMP10 (UniProt O95393 317-424); experiment: Biacore SPR; kinetics indeterminate (transient)
T11 sequence (looked up): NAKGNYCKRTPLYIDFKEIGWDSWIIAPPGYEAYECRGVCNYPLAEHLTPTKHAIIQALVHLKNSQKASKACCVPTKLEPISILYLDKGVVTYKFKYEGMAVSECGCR
Protocol: as §1

BMP9 [3] = molecular target: T7, BMP9; experiment: Biacore SPR; remark: listed apart in the source
Protocol: (§2) A Biacore™-based binding assay was used to compare ligand binding selectivity of the TGFβRIISHORT-Fc:ALK1-Fc heterodimeric complex described above with that of TGFβRIISHORT-Fc and ALK1-Fc homodimeric complexes. […] Ligands were injected and allowed to flow over the captured receptor protein.

BMP10 [4] = molecular target: T11, BMP10; experiment: Biacore SPR
Protocol: as §2

TGFβ2 = molecular target: T12, TGFβ2 (human, UniProt P61812 303-414); experiment: Biacore SPR
T12 construct: Human (PeproTech) is stated for the A549 reporter assay; also called TGF-beta2
T12 sequence (looked up): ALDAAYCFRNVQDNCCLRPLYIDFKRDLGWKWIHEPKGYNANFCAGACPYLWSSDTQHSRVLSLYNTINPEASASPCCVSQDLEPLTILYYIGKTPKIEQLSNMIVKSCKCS
Protocol: as §2

TGFβ1 = molecular target: T13, TGFβ1 (human, UniProt P01137 in part); experiment: Biacore SPR; kinetics indeterminate (transient)
T13 construct: Human (PeproTech) is stated for the A549 reporter assay; also called TGF-beta1
Protocol: as §2

TGFβ3 = molecular target: T14, TGFβ3 (human, UniProt P10600 301-412); experiment: Biacore SPR; kinetics indeterminate (transient)
T14 construct: Human (PeproTech) is stated for the A549 reporter assay; also called TGF-beta3
T14 sequence (looked up): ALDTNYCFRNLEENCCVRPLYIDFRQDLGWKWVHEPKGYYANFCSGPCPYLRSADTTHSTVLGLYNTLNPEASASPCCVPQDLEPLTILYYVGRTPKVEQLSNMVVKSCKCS
Protocol: as §2

BMP15 [5] = molecular target: T15, BMP15 (UniProt O95972 268-392); experiment: Biacore SPR
T15 construct: also called GDF9b
T15 sequence (looked up): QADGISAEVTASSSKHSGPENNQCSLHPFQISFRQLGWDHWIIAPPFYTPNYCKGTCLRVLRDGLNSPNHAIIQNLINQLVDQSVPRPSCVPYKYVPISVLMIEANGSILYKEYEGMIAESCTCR

BMP10 [6] = molecular target: T11, BMP10; experiment: Biacore SPR; remark: listed apart in the source
Protocol: as §1

BMP15 [7] = molecular target: T15, BMP15; experiment: Biacore SPR; remark: listed apart in the source
Protocol: as §1

TGFβ1, sequence (P01137 279-390 limits assumed): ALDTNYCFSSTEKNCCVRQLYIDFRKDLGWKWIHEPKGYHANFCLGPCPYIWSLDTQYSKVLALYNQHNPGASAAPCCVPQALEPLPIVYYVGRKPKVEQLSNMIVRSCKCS

- Kd (activin A): 0.032 nM
- koff (activin A): 0.00024 s⁻¹
- kon (activin A): 7.4e+06 M⁻¹ s⁻¹
- Kd (activin B): 0.05 nM
- koff (activin B): 0.00048 s⁻¹
- kon (activin B): 9.5e+06 M⁻¹ s⁻¹
- Kd (activin AB): 0.013 nM
- koff (activin AB): 0.00023 s⁻¹
- kon (activin AB): 1.8e+07 M⁻¹ s⁻¹
- Kd (activin AC): 0.17 nM
- koff (activin AC): 0.00054 s⁻¹
- kon (activin AC): 3.2e+06 M⁻¹ s⁻¹
- Kd (BMP6): 2.2 nM
- koff (BMP6): 0.012 s⁻¹
- kon (BMP6): 5.4e+06 M⁻¹ s⁻¹
- Kd (BMP7): 3.5 nM
- koff (BMP7): 0.072 s⁻¹
- kon (BMP7): 2e+07 M⁻¹ s⁻¹
- binding result (BMP9 [1]): no binding
- koff (GDF3): 0.0048 s⁻¹
- kon (GDF3): 490000 M⁻¹ s⁻¹
- Kd (GDF8): 0.15 nM
- koff (GDF8): 0.0028 s⁻¹
- kon (GDF8): 1.8e+07 M⁻¹ s⁻¹
- Kd (GDF11): 0.022 nM
- koff (GDF11): 0.00065 s⁻¹
- kon (GDF11): 3e+07 M⁻¹ s⁻¹
- Kd (BMP10 [2]): > 6 nM
B1: ActRIIA-Fc:ALK4-Fc heterodimer (Fc fusion)
chain 1: [no letters for about 120 residues][no letters for about 250 residues]
chain 2: SGPRGVQALLCACTSCLQANYTCETDGACMVSIFNLDGMEHHVRTCIPKVELVPAGKPFYCLSSEDLRNTHCCYTDYCNRIDLRVPSGHLKEPEHPSMWGPVETGGGTHTCPPCPAPELLGGPSVFLFPPKPKDTLMISRTPEVTCVVVDVSHEDPEVKFNWYVDGVEVHNAKTKPREEQYNSTYRVVSVLTVLHQDWLNGKEYKCKVSNKALPAPIEKTISKAKGQPREPQVYTLPPSREEMTKNQVSLTCLVKGFYPSDIAVEWESNGQPENNYDTTPPVLDSDGSFFLYSDLTVDKSRWQQGNVFSCSVMHEALHNHYTQKSLSLSPG
notes: C-terminal Lys optional; also called ActRIIA-Fc:ALK4-Fc heterodimeric complex

- Kd (BMP9 [3]): 0.11 nM
- koff (BMP9 [3]): 0.0022 s⁻¹
- kon (BMP9 [3]): 2.1e+07 M⁻¹ s⁻¹
- Kd (BMP10 [4]): 0.078 nM
- koff (BMP10 [4]): 0.00096 s⁻¹
- kon (BMP10 [4]): 1.2e+07 M⁻¹ s⁻¹
- binding result (TGFβ2): no binding
- Kd (TGFβ1): > 5.3 nM
- Kd (TGFβ3): > 4.7 nM
B2: TGFβRIISHORT-Fc:ALK1-Fc heterodimer (Fc fusion)
chain 1: TIPPHVQKSVNNDMIVTDNNGAVKFPQLCKFCDVRFSTCDNQKSCMSNCSITSICEKPQEVCVAVWRKNDENITLETVCHDPKLPYHDFILEDAASPKCIMKEKKKPGETFFMCSCSSDECNDNIIFSEEYNTSNPDTGGGTHTCPPCPAPELLGGPSVFLFPPKPKDTLMISRTPEVTCVVVDVSHEDPEVKFNWYVDGVEVHNAKTKPREEQYNSTYRVVSVLTVLHQDWLNGKEYKCKVSNKALPAPIEKTISKAKGQPREPQVYTLPPSRKEMTKNQVSLTCLVKGFYPSDIAVEWESNGQPENNYKTTPPVLKSDGSFFLYSKLTVDKSRWQQGNVFSCSVMHEALHNHYTQKSLSLSPGK
chain 2: [no letters for about 100 residues][no letters for about 250 residues]
notes: C-terminal Lys optional; also called TGFBRIISHORT-Fc:ALK1-Fc heterodimer; TGFβRII-Fc:ALK1-Fc heterodimer

- affinity ratio against BMPRII-Fc homodimer (BMP15 [5]): ~10 fold
- Kd (BMP9 [1]): 0.36 nM
- koff (BMP9 [1]): 0.00041 s⁻¹
- kon (BMP9 [1]): 1.2e+06 M⁻¹ s⁻¹
- Kd (BMP10 [6]): 0.023 nM
- koff (BMP10 [6]): 0.00035 s⁻¹
- kon (BMP10 [6]): 1.5e+07 M⁻¹ s⁻¹
- Kd (BMP15 [7]): 3.5 nM
- koff (BMP15 [7]): 0.042 s⁻¹
- kon (BMP15 [7]): 1.2e+07 M⁻¹ s⁻¹
B3: BMPRII-Fc:ALK1-Fc heterodimer (Fc fusion)
chain 1: SQNQERLCAFKDPYQQDLGIGESRISHENGTILCSKGSTCYGLWEKSKGDINLVKQGCWSHIGDPQECHYEECVVTTTPPSIQNGTYRFCCCSTDLCNVNFTENFPPPDTTPLSPPHSFNRDETGGGTHTCPPCPAPELLGGPSVFLFPPKPKDTLMISRTPEVTCVVVDVSHEDPEVKFNWYVDGVEVHNAKTKPREEQYNSTYRVVSVLTVLHQDWLNGKEYKCKVSNKALPAPIEKTISKAKGQPREPQVYTLPPSRKEMTKNQVSLTCLVKGFYPSDIAVEWESNGQPENNYKTTPPVLKSDGSFFLYSKLTVDKSRWQQGNVFSCSVMHEALHNHYTQKSLSLSPGK
chain 2: [no letters for about 100 residues][no letters for about 250 residues]
notes: C-terminal Lys optional; also called BMPRII-Fc:ALK1-Fc heterodimeric complex

— patent US20190225669A1 (ACCELERON PHARMA, published 2019)
